The structures appear in SMILES notation. Values joined by “and” are separate entries in the source; they are usually repeats but may differ in a detail not shown here. Equal values may be shown once. Hit rate of the full screen: of about 150,000 compounds, about 6,500 (4.3%) were called active. Another 12% or so got no clear call; they are omitted. Calls come from the whole dose curve; as a rule, active = well fitted inhibition curve with a large enough effect (not every such curve was filed as active); inconclusive = small, poorly fitted or top-dose-only effect, or another doubt; inactive = no such curve, though single readings can be large or run the other way. Only a part is listed here, and it is no random draw. Some structures have more than one record in an assay (separate samples or runs), and their calls can disagree.
% is set by controls: 0 for no effect and ±100 for the full control effect; potency is the fitted concentration of half-maximal effect.

The target of the assay is 15-hydroxyprostaglandin dehydrogenase [NAD(+)] (Homo sapiens) (UniProt P15428). As to the kind of experiment: qHTS Assay for Inhibitors of HPGD (15-Hydroxyprostaglandin Dehydrogenase). As to conditions: purified HPGD, NADH fluorescence kinetic, PGE2 substrate; activity change, negative = inhibition: hits give low values. Summed up: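 20 nM HPGD preincubated 15 min at room temperature with compound in 50 mM Tris-HCl pH 8, 0.01% Tween 20. Started with 1 mM NAD+ and 30 uM prostaglandin E2; NADH fluorescence (360/450 nm) read 5 times over 30-s intervals, last minus first.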
UniProt P15428, sequence (P15428 whole entry, looked up): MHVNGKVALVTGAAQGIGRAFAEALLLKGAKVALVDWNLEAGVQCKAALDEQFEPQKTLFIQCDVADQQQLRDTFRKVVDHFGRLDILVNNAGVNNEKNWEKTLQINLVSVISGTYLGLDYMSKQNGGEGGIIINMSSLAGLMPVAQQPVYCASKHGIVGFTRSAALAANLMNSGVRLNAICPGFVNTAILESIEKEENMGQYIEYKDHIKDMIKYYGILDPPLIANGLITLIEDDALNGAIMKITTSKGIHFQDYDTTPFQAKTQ
A general note: Quantitative high-throughput screening tests each substance at several concentrations.
For `Cn1c(=O)cc(OCC(=O)N2CCN(c3cccc(C(F)(F)F)c3)CC2)c2ccccc21`, the activity change, negative = inhibition was inactive: 44.9%.
Regarding `Cc1onc(-c2ccccc2Cl)c1C(=O)OCN1C(=O)c2ccccc2C1=O`, the Potency was active: 11.2 µM.
As for `COc1ccccc1CNC(=O)c1cccc(-c2ccc(C)c3ccccc23)n1`, the activity change, negative = inhibition was inactive: -26.4%.
`Cc1ccc(/C=N/c2sc3c(c2C#N)CCC3)o1`: the Potency is active: 15.8 µM.
In the case of `COC(=O)[C@@H]1[C@@H]2C[C@H]3c4[nH]c5cc(OC)ccc5c4CCN3C[C@@H]2C[C@H](OC(=O)c2cc(OC)c(OC)c(OC)c2)[C@H]1OC`, the activity change, negative = inhibition is inactive: -22%.
On to `O=[N+]([O-])c1cc2nc(O)c(O)nc2cc1[N+](=O)[O-]`, for which the activity change, negative = inhibition is inactive: -23.1%.
For `CC1CCCN(C(=O)CCc2ccccc2)C1` (stereo unspecified), the Potency was active: 4.47 µM.
As for `CC(NC(=O)OC(C)(C)C)C(=O)Oc1ccc2ccc(=O)oc2c1` (stereo unspecified), the activity change, negative = inhibition was inactive: 99.2%.
In the case of `CCc1c(C)[nH]c(=S)c(C#N)c1C`, the Potency is active: 35.5 µM.
Take `COc1ccc(NC(=O)c2ccc(-c3ccc(-c4noc(C)n4)cc3C)cc2)cc1N1CCN(C)CC1`: the activity change, negative = inhibition is inactive: -16.2%.
Regarding `CCCCC[C@H](O)/C=C/[C@H]1[C@H](O)CC(=O)[C@@H]1CCCCCCC(=O)O`, the activity change, negative = inhibition was inactive: -10.2%.
As to `CCc1oc2ccccc2c1C(=O)c1cc(Br)c(O)c(Br)c1`, the activity change, negative = inhibition was inactive: -27.8% and inactive: -17.8%.
Same read-out and setting: as for `O=C(N/N=C/c1ccc2c(c1)OCO2)c1cc(-c2ccccc2)nc2ccccc12`, the figure is inactive: 242%.
As for `CSc1ccc(-c2c(C#N)c(N)nc3c2CCCC3)cc1`, the activity change, negative = inhibition is inactive: 164%.
Regarding `COCc1c(C)cc(C)c(/C=N/O)c1C`, the Potency was active: 14.1 µM.
On to `O=C(O)c1cc2ccccc2c(Cc2c(O)c(C(=O)O)cc3ccccc23)c1O`, for which the activity change, negative = inhibition is inactive: -2.19%.
The same measure, in the same setting: to `COc1ccc(/C=C/C(=O)c2c(O)ccc3c(C)cc(=O)oc23)cc1` belongs inactive: -14.2%.
Consider `CCCCNC(=O)c1ccc(CNc2c(N3CCC(C(=O)OCC)CC3)c(=O)c2=O)cc1`, for which the Potency is active: 3.55 µM.
As for `CC(C)NC[C@H](O)c1ccc(O)c(O)c1`, the activity change, negative = inhibition was inactive: -2.34% [middle of 4 runs].
Turning to `O=C(CC(c1ccccc1)c1cc(Br)ccc1O)NCc1ccco1` (stereo unspecified), the Potency is active: 7.08 µM.
Consider `COCCCNC(=O)C1CCN(S(=O)(=O)c2c(C)noc2/C=C\c2ccc(OC)cc2)CC1`, for which the activity change, negative = inhibition is inactive: 632%.
On to `Cc1ccc(-c2cccc(NC(=O)C3C4C=CC(C4)C3C(=O)O)c2)o1` (stereo unspecified), for which the activity change, negative = inhibition was inactive: -16.7%.
Still for that read-out and setting: as for `CC1=C(C(=O)O)N2C(=O)[C@@H](NC(=O)[C@@H](N)c3ccccc3)[C@@H]2SC1`, the figure is inactive: -29.4%.
Take `COc1ccc2ccccc2c1C1CC(=O)N2CN(Cc3ccco3)CSC2=C1C#N` (stereo unspecified): the Potency is active: 7.94 µM.
On to `O=C(NCc1ccco1)c1sc2cc(Cl)ccc2c1Cl`, for which the Potency is active: 15.8 µM.
For `Cc1cccc(NC(=O)c2ccccc2Br)n1`, the Potency was active: 25.1 µM.
Same read-out and setting: to `CCc1ccc(C(=O)NN(C(=O)c2ccc(CC)cc2)C(C)(C)C)cc1` belongs active: 25.1 µM.
Consider `Cc1ccc(N=CC2=C(O)CC(c3ccc(Cl)cc3)CC2=O)cc1` (stereo unspecified), for which the activity change, negative = inhibition is inactive: 479%.
On the same count and under the same terms, to `CCCCc1c(C)c2ccc(OCC(C)=O)cc2oc1=O` belongs inactive: 103%; to `COC(=O)C1=C(NC(=O)COc2ccc3ccccc3c2)CCS1`, inactive: 106%.
In the case of `Cc1ccn2cc(CNC(=O)c3ccc(Br)o3)nc2c1`, the Potency was active: 15.8 µM.
Consider `N#Cc1cc2[nH]c(=O)c(=O)[nH]c2cc1[N+](=O)[O-]`, for which the activity change, negative = inhibition was inactive: -27.7%.
Take `CCCCCC(=O)Nc1sc(C)c(C)c1C#N`: the Potency was active: 25.1 µM.
Still for that read-out and setting: as for `COc1ccc2[nH]c(=S)[nH]c2c1`, the figure is active: 28.2 µM; as for `Cc1cc(SCC(=O)N/N=C/c2ccc(O)c(O)c2O)c(C)cc1Br`, active: 10 µM.
Regarding `Cc1noc(/C=C/c2ccco2)c1S(=O)(=O)N1CCC(C(=O)NCc2ccco2)CC1`, the activity change, negative = inhibition is inactive: 30.5%.
For the molecule `C=CCN(CC=C)c1cnn(-c2nc3ccccc3[nH]2)c(=O)c1Cl`, the activity change, negative = inhibition was inactive: 215%.
As to `CCCCCCc1ccc(O)cc1O`, the activity change, negative = inhibition is inactive: -13.3% and inactive: -26.3%.
In the case of `COc1cc2c(cc1OC)CN(c1ccc(-c3ccccc3OC)nn1)CC2`, the Potency was active: 35.5 µM.
Still for that read-out and setting: as for `NC(=O)c1c(NC(=O)CSc2nnc(-c3ccco3)n2-c2ccccc2)sc2c1CCC2`, the figure is active: 28.2 µM; as for `COc1ccc(NC(=S)NCc2ccc(S(N)(=O)=O)cc2)c(OC)c1`, active: 14.1 µM.
`O=C(COC(=O)c1ccc(S(=O)(=O)N2CCOCC2)cc1)Nc1nc(-c2ccccc2)cs1`: the activity change, negative = inhibition was inactive: 81.9%.
On the same count and under the same terms, as for `Cc1coc(NC(=O)CSc2nc(-c3ccc(Cl)cc3)cc(C(F)(F)F)c2C#N)n1`, the figure is inactive: 39.6%; as for `CCOc1ccccc1NC(=O)C(OC(=O)c1ccccc1O)c1ccccc1` (stereo unspecified), inactive: 48.4%.
As for `Cn1cccc1C(=O)N1CCC2(CC1)CCN(c1ccccc1)CC2`, the activity change, negative = inhibition was inactive: -6.59%.
As for `Cc1cccc(CNc2nc(-c3c(C)noc3C)nc3ccccc23)c1`, the activity change, negative = inhibition was inactive: 62.4%.
As for `Cn1c(-c2ccc3c(c2)OCO3)cnc1NCc1ccccc1`, the Potency was active: 15.8 µM.
For the molecule `CC(C)Cn1c(N)c(C(=O)COC(=O)c2cc(C(F)(F)F)nc3ccccc23)c(=O)n(C)c1=O`, the activity change, negative = inhibition was inactive: -18.3%.
On the same count and under the same terms, as for `CCNC(=O)/C(=C\c1ccc2c(c1)OCO2)NC(=O)c1ccc(Br)cc1`, the figure is inactive: -1.75%.
Same read-out and setting: to `CN1CCN2c3ccccc3Cc3ccccc3[C@@H]2C1` belongs inactive: -8.29% and inactive: -16.1%; to `CCCc1c(C)c2ccc(OCC(C)=O)cc2oc1=O`, inactive: 190%; to `CCCC[C@H]1C(=O)N(c2ccccc2)N(c2ccc(O)cc2)C1=O`, inactive: -29%.
On the same count and under the same terms, as for `COc1cccc(/C=N/NC(=O)c2ccc(COc3ccc(Cl)cc3Cl)o2)c1`, the figure is inactive: 32.2%.
On to `Cc1[nH]c(=O)c(C#N)cc1-c1ccncc1`, for which the activity change, negative = inhibition was inactive: -6.51% and inactive: -18.6%.
On to `O=C1CCCN1c1ccc(S(=O)(=O)Oc2ccc(Cl)cc2)cc1[N+](=O)[O-]`, for which the Potency is active: 7.94 µM.
As for `CC1(C)S[C@H]2[C@@H](NC(=O)C(N)c3ccccc3)C(=O)N2[C@H]1C(=O)O` (stereo partly specified), the activity change, negative = inhibition is inactive: -29.2%.
Consider `COc1ccc(C2C(=O)c3ccccc3C2=O)cc1`, for which the activity change, negative = inhibition is inactive: -13.2%.
Still for that read-out and setting: as for `CCOc1cc(/C=C/c2nc3cc(C)c(C)cc3s2)ccc1OCC(=O)N1CCOCC1`, the figure is inactive: 278%.
For `CC(=O)c1cc2c(cc1NC(=O)CN1CCN(c3cccc(C(F)(F)F)c3)CC1)OCO2`, the activity change, negative = inhibition is inactive: 55.7%.
Regarding `CN(C)C(=O)c1ccc(-c2nc(NCc3cccs3)c3ccccc3n2)cc1`, the Potency is active: 15.8 µM.
For the molecule `COCCCN(C(=O)c1ccco1)c1nc(-c2cc(OC)ccc2OC)cs1`, the activity change, negative = inhibition is inactive: 50.9%.
Regarding `Cc1ccccc1Nc1nnc(SCc2cc([N+](=O)[O-])cc3c2OCOC3)s1`, the Potency was active: 14.1 µM.
Turning to `Nc1ccc(-c2cc(-c3cccc(N)c3)nc(-c3ccccc3)n2)cc1`, the activity change, negative = inhibition is inactive: 60.2%.
Take `Cn1c(=O)c(C(=O)COC(=O)c2cc(C(F)(F)F)nc3ccccc23)c(N)n(Cc2ccccc2)c1=O`: the activity change, negative = inhibition is inactive: -20.1%.
On the same count and under the same terms, to `CCCCCCCCCCCCOS(=O)(=O)O` belongs inactive: -2.39%.
For the molecule `O=C(CCn1nnc(-c2cccs2)n1)N1CCc2ccccc2C1`, the Potency is active: 15.8 µM.
On the same count and under the same terms, to `Cc1ccccc1/C(N)=N/OC(=O)N1c2ccccc2Sc2ccccc21` belongs active: 17.8 µM.
On the same count and under the same terms, as for `O=C(/C=C/c1ccco1)NC(=S)Nc1cccc([N+](=O)[O-])c1`, the figure is active: 17.8 µM; as for `Cc1cc(O)ccc1Nc1nc(-c2sc(N)nc2C)cs1`, active: 15.8 µM.
With `CCOC(=O)c1c(CN2CCCCC2)oc2ccc(OC)cc12`, the activity change, negative = inhibition is inactive: -18.2%.
Same read-out and setting: to `O=C(O)c1ccccc1Nc1ccccc1` belongs inactive: -20%.
As for `O=C(c1ccc(CNc2c(N3CCCC3)c(=O)c2=O)cc1)N1CCc2ccccc2C1`, the Potency was active: 3.55 µM.
Same read-out and setting: to `COc1ccc(N=Cc2nc(-c3ccccc3)oc2OC(=O)c2ccccc2)cc1` belongs active: 22.4 µM; to `O=C(O)c1cc(O)c2c(c1)C(=O)c1cc(O)cc(O)c1C2=O`, active: 14.1 µM.
For the molecule `Cc1ccc(C(=O)N/C(=C\C=C\c2ccccc2)C(=O)NCc2ccco2)cc1`, the activity change, negative = inhibition was inactive: -17.2%.
As for `Cc1ccc(C(=O)NCc2ccc(Cl)cc2)o1`, the Potency is active: 14.1 µM.
Take `Cn1c(N)cc(=O)n(Cc2ccccc2)c1=O`: the activity change, negative = inhibition was inactive: -7.02%.
With `Clc1ccc(-c2cc3ccccc3[nH]2)cc1`, the activity change, negative = inhibition is inactive: 48.7%.
On to `Cc1ccc(OCc2nc(-c3ccccn3)no2)c(Br)c1`, for which the Potency was active: 17.8 µM.
Same read-out and setting: to `O=C1Nc2ccc(I)cc2/C1=C/c1cc(Br)c(O)c(Br)c1` belongs active: 7.94 µM and active: 3.55 µM; to `CCCCSc1nnc(CSc2nc3nc(C)cc(C)n3n2)o1`, active: 25.1 µM.
Consider `Cn1nnnc1SCC1=C(C(=O)O)N2C(=O)[C@@H](NC(=O)[C@@H](O)c3ccccc3)[C@@H]2SC1`, for which the activity change, negative = inhibition is inactive: -15.3%.
With `Cc1cccc(Cn2cnc3c(nnn3Cc3ccc(Cl)cc3)c2=O)c1`, the Potency is active: 12.6 µM.
For `O=C(N/C(=C/c1ccc(Br)cc1)c1nc2ccccc2[nH]1)c1ccco1`, the activity change, negative = inhibition is inactive: -22%.
As for `O=C(c1ccc(-n2cnnn2)cc1)N1CCCCC1`, the Potency is active: 15.8 µM.
On to `COC(=O)Cc1c(C)c2ccc(OC(=O)c3ccco3)cc2oc1=O`, for which the activity change, negative = inhibition was inactive: 120%.
The same measure, in the same setting: as for `COc1cccc(/C=N/n2c(N)c(S(=O)(=O)c3cccs3)c3nc4ccccc4nc32)c1OC`, the figure is inactive: 147%; as for `CC(=O)c1cc2c(cc1NC(=O)CN1CCC(Cc3ccccc3)CC1)OCO2`, inactive: 100%.
`O=C(O)Cc1cc(I)c(Oc2ccc(O)c(I)c2)c(I)c1`: the activity change, negative = inhibition is inactive: -20.9%.
On to `O=C(N/N=C/C(Cl)=C\c1ccccc1)c1cnccn1`, for which the activity change, negative = inhibition is inactive: -7%.
On to `O=C(NC1CC1)c1ccc(F)cc1Cl`, for which the Potency was active: 20 µM.

The record behind these values is PubChem BioAssay AID894 (National Center for Advancing Translational Sciences (NCATS), 2007).
